# In patent publication US11366114B2, “Genetically encoded fluorescent sensors for detecting ligand bias and intracellular signaling through cAMP pathways” (MONTANA MOLECULAR LLC, priority 2013, dated 2022):
# B1: Lib2-1 G12-RasGEF-T2: cAMP sensor protein; SEQ ID NO: 3 in Tables 1 and 3 (protein)
# chain: MGSNNDRIPDKENTPLIEPHVPLRPANTITKVPSEKILRAGKILRNAILSRAPHMIRDRKYHLKTYRQCCVGTELVDWMMQQTPCVHSRTQAVGMWQVLLEDGVLNHVDQEHHFQDKYLFYRFLDDEHEDAPLPTEEEKKECDEELQDTMLLLSQMGPDAHMRMILRKPPGQRTVDDLEIIYEELLHIKALSHLSTTVKRELAGVLIFESHAKGGTVLFNQGEEGTSWYIILKGSVNVVIYGKGVVCTLHEGDDFGKLALVNDAPRAASIVLREDNCHFLRVDKEDFNRILRDVEALENVYIKADKQKNGIKANFKIRHNIEDGGVQLAYHYQQNTPIGDGPVLLPDNHYLSVQSILSKDPNEKRDHMVLLEFVTAAGITLGMDELYKGGTGGSMVSKGEELFTGVVPIQVELDGDVNGHKFSVSGEGEGDATYGKLTLKFICTTGKLPVPWPTLVTTLTYGVQCFSRYPDHMKQHDFFKSAMPEGYIQERTIFFKDDGNYKTRAEVKFEGDTLVNRIELKGIDFKEDGNILGHKLEYNTRKEDFNRILRDVEANTVRLKEHDQDVLVLEKVPAGNRASNQGNSQPQQKYTVMSGTPEKILEHFLETIRLEATLNEATDSVLNDFIMMHCVFMPNTQLCPALVAHYHAQPSQGTEQEKMDYALNNKRRVIRLVLQWAAMYGDLLQEDDVSMAFLEEFYVSVSDDARMIAALKEQLPELEKIVKQISEDAKAPQKKHKVLLQQFNTGDE
# B2: EcpG10 G2N-G1C: cAMP sensor; SEQID 26 in Table 1, SEQ ID NO: 27 in Table 3 (protein)
# chain: MVAAHAAHSSSSAEWIACLDKRPLERSSEDVDIIFTRLKEVKAFEKFHPNLLHQICLCGYYENLEKGITLFRQGDIGTNWYAVLAGSLDVKVSETSSHQDAVTICTLGIGTAFGESILDNTPRHATIVTRESSELLRIEQKDFKALWEKYRQYMAGLLAPPYGVMETGSNNDRIPDKENTPLIEPHVPLRPANTITKVPSEKILRAGKILRNAILSRAPHMIRDRKYHLKTYRQCCVGTELVDWMMQQTPCVHSRTQAVGMWQVLLEDGVLNHVDQEHHFQDKYLFYRFLDDEHEDAPLPTEEEKKECDEELQDTMLLLSQMGPDAHMRMILRKPPGQRTVDDLEIIYEELLHIKALSHLSTTVKRELAGVLIFESHAKGGTVLFNQGEEGTSWYIILKGSVNVVIYGKGVVCTLHEGDDFGKLALVNDAPRAASIVLREDNCHFLRVDKEDFNRILRDVEANTVRLKEHDQDVLVLEKVPAGNRASNQGNSQPQQKYTVMSGTPEKILEHFLETIRLEATLNEATDSVLNDFIMMHCVFMPNTQLCPALVAHYHAQPSQGTEQEKMDYALNNKRRVIRLVLQWAAMYGDLLQEDDVSMAFLEEFYVSVSDDARMIAALKEQLPELEKIVKQISEDAKAPQKKHKVLLQQFNTGDERAQKRQPIRGSDEVLFKVYCMDPTYTTIRVPVATSVKEVISAVADKLGSGEGLIIVKMSSGGEKVVLKPNDVSVFMTLTINGRLFACPREQFDSLTPLPEQEGPTVGTVGTFELMSSKDLAYQMTIYDWELFNCVHELELIYHTFGRHNFKKTTANLDLFLRRFNEIQFWVVTEICLCSQLSKRVQLLKKFIKIAAHCKEYKNLNSFFAIVMGLSNVAVSRLALTWEKLPSKFKKFYAEFESLMDPSRNHRAYRLTVAKLEPPLIPFMPLLIKDMTFTHEGNKTFIDNLVNFEKMRMIANTARTVRYYRSQPFNPDAAQANKNHQDVRSYVRQLNVIDNQRTLSQMSHRLEPRRPLENVYIKADKQKNGIKANFKIRHNIEDGGVQLAYHYQQNTPIGDGPVLLPDNHYLSVQSILSKDPNEKRDHMVLLEFVTAAGITLGMDELYKGGTGGSMVSKGEELFTGVVPIQVELDGDVNGHKFSVSGEGEGDATYGKLTLKFICTTGKLPVPWPTLVTTLTYGVQCFSRYPDHMKQHDFFKSAMPEGYIQERTIFFKDDGNYKTRAEVKFEGDTLVNRIELKGIDFKEDGNILGHKLEYNTRREYKLVVLGSGGVGKSALTVQFVQGIFVEKYDPTIEDSYRKQVEVDAQQCMLEILDTAGTEQFTAMRDLYMKNGQGFALVYSITAQSTFNDLQDLREQILRVKDTDDVPMILVGNKCDLEDERVVGKEQGQNLARQWNNCAFLESSAKSKINVNEIFYDLVRQINRKTPVPGKARKKSSCQLL
# B3: Library 1 A6: cAMP sensor; SEQID 23 in Table 1, SEQ ID NO: 24 in Table 3 (protein)
# chain: MVAAHAAHSSSSAEWIACLDKRPLERSSEDVDIIFTRLKEVKAFEKFHPNLLHQICLCGYYENLEKGITLFRQGDIGTNWYAVLAGSLDVKVSETSSHQDAVTICTLGIGTAFGESILDNTPRHATIVTRESSELLRIEQKDFKALWEKYRQYMAGLLAPPYGVMETGSNNDRIPDKENTPLIEPHVPLRPANTITKVPSEKILRAGKILRNAILSRAPHMIRDRKYHLKTYRQCCVGTELVDWMMQQTPCVHSRTQAVGMWQVLLEDGVLNHVDQEHHFQDKYLFYRFLDDEHEDAPLPTEEEKKECDEELQDTMLLLSQMGPDAHMRMILRKPPGQRTVDDLEIIYEELLHIKALSHLSTTVKRELAGVLIFESHAKGGTVLFNQGEEGTSWYIILKGSVNVVIYGKGVVCTLHEGDDFGKLALVNDAPRAASIVLREDNCHFLRVDKEDFNRILRMSNVYIKADKQKNGIKANFKIRHNIEDGGVQLAYHYQQNTPIGDGPVLLPDNHYLSVQSILSKDPNEKRDHMVLLEFVTAAGITLGMDELYKGGTGGSMVSKGEELFTGVVPIQVELDGDVNGHKFSVSGEGEGDATYGKLTLKFICTTGKLPVPWPTLVTTLTYGVQCFSRYPDHMKQHDFFKSAMPEGYIQERTIFFKDDGNYKTRAEVKFEGDTLVNRIELKGIDFKEDGNILGHKLEYNVSDVEANTVRLKEHDQDVLVLEKVPAGNRASNQGNSQPQQKYTVMSGTPEKILEHFLETIRLEATLNEATDSVLNDFIMMHCVFMPNTQLCPALVAHYHAQPSQGTEQEKMDYALNNKRRVIRLVLQWAAMYGDLLQEDDVSMAFLEEFYVSVSDDARMIAALKEQLPELEKIVKQISEDAKAPQKKHKVLLQQFNTGDERAQKRQPIRGSDEVLFKVYCMDPTYTTIRVPVATSVKEVISAVADKLGSGEGLIIVKMSSGGEKVVLKPNDVSVFMTLTINGRLFACPREQFDSLTPLPEQEGPTVGTVGTFELMSSKDLAYQMTIYDWELFNCVHELELIYHTFGRHNFKKTTANLDLFLRRFNEIQFWVVTEICLCSQLSKRVQLLKKFIKIAAHCKEYKNLNSFFAIVMGLSNVAVSRLALTWEKLPSKFKKFYAEFESLMDPSRNHRAYRLTVAKLEPPLIPFMPLLIKDMTFTHEGNKTFIDNLVNFEKMRMIANTARTVRYYRSQPFNPDAAQANKNHQDVRSYVRQLNVIDNQRTLSQMSHRLEPRRP
# B4: Library 6-2 F1: cAMP sensor; SEQID 24 in Table 1, SEQ ID NO: 25 in Table 3 (protein)
# chain: B3 chain with M459L, S460E, V702T, S703R
# B5: Library 2-1 G12: cAMP sensor protein; SEQ ID NO: 2 in Tables 1 and 3 (protein)
# chain: MVAAHAAHSSSSAEWIACLDKRPLERSSEDVDIIFTRLKEVKAFEKFHPNLLHQICLCGYYENLEKGITLFRQGDIGTNWYAVLAGSLDVKVSETSSHQDAVTICTLGIGTAFGESILDNTPRHATIVTRESSELLRIEQKDFKALWEKYRQYMAGLLAPPYGVMETGSNNDRIPDKENTPLIEPHVPLRPANTITKVPSEKILRAGKILRNAILSRAPHMIRDRKYHLKTYRQCCVGTELVDWMMQQTPCVHSRTQAVGMWQVLLEDGVLNHVDQEHHFQDKYLFYRFLDDEHEDAPLPTEEEKKECDEELQDTMLLLSQMGPDAHMRMILRKPPGQRTVDDLEIIYEELLHIKALSHLSTTVKRELAGVLIFESHAKGGTVLFNQGEEGTSWYIILKGSVNVVIYGKGVVCTLHEGDDFGKLALVNDAPRAASIVLREDNCHFLRVDKEDFNRILRDVEALENVYIKADKQKNGIKANFKIRHNIEDGGVQLAYHYQQNTPIGDGPVLLPDNHYLSVQSILSKDPNEKRDHMVLLEFVTAAGITLGMDELYKGGTGGSMVSKGEELFTGVVPIQVELDGDVNGHKFSVSGEGEGDATYGKLTLKFICTTGKLPVPWPTLVTTLTYGVQCFSRYPDHMKQHDFFKSAMPEGYIQERTIFFKDDGNYKTRAEVKFEGDTLVNRIELKGIDFKEDGNILGHKLEYNTRKEDFNRILRDVEANTVRLKEHDQDVLVLEKVPAGNRASNQGNSQPQQKYTVMSGTPEKILEHFLETIRLEATLNEATDSVLNDFIMMHCVFMPNTQLCPALVAHYHAQPSQGTEQEKMDYALNNKRRVIRLVLQWAAMYGDLLQEDDVSMAFLEEFYVSVSDDARMIAALKEQLPELEKIVKQISEDAKAPQKKHKVLLQQFNTGDERAQKRQPIRGSDEVLFKVYCMDPTYTTIRVPVATSVKEVISAVADKLGSGEGLIIVKMSSGGEKVVLKPNDVSVFMTLTINGRLFACPREQFDSLTPLPEQEGPTVGTVGTFELMSSKDLAYQMTIYDWELFNCVHELELIYHTFGRHNFKKTTANLDLFLRRFNEIQFWVVTEICLCSQLSKRVQLLKKFIKIAAHCKEYKNLNSFFAIVMGLSNVAVSRLALTWEKLPSKFKKFYAEFESLMDPSRNHRAYRLTVAKLEPPLIPFMPLLIKDMTFTHEGNKTFIDNLVNFEKMRMIANTARTVRYYRSQPFNPDAAQANKNHQDVRSYVRQLNVIDNQRTLSQMSHRLEPRRP
# B6: EcpG10 G2-RasGEF-T2: Best Upward Sensor; SEQ ID NO: 1 in Tables 1 and 3 (protein)
# chain: MGSNNDRIPDKENTPLIEPHVPLRPANTITKVPSEKILRAGKILRNAILSRAPHMIRDRKYHLKTYRQCCVGTELVDWMMQQTPCVHSRTQAVGMWQVLLEDGVLNHVDQEHHFQDKYLFYRFLDDEHEDAPLPTEEEKKECDEELQDTMLLLSQMGPDAHMRMILRKPPGQRTVDDLEIIYEELLHIKALSHLSTTVKRELAGVLIFESHAKGGTVLFNQGEEGTSWYIILKGSVNVVIYGKGVVCTLHEGDDFGKLALVNDAPRAASIVLREDNCHFLRVDKEDFNRILRLVSHNVYIKADKQKNGIKANFKIRHNIEDGGVQLAYHYQQNTPIGDGPVLLPDNHYLSVQSILSKDPNEKRDHMVLLEFVTAAGITLGMDELYKGGTGGSMVSKGEELFTGVVPIQVELDGDVNGHKFSVSGEGEGDATYGKLTLKFICTTGKLPVPWPTLVTTLTYGVQCFSRYPDHMKQHDFFKSAMPEGYIQERTIFFKDDGNYKTRAEVKFEGDTLVNRIELKGIDFKEDGNILGHKLEYNFNNPDVEANTVRLKEHDQDVLVLEKVPAGNRASNQGNSQPQQKYTVMSGTPEKILEHFLETIRLEATLNEATDSVLNDFIMMHCVFMPNTQLCPALVAHYHAQPSQGTEQEKMDYALNNKRRVIRLVLQWAAMYGDLLQEDDVSMAFLEEFYVSVSDDARMIAALKEQLPELEKIVKQISEDAKAPQKKHKVLLQQFNTGDE
# System: cAMP
# Assay: Fluorescence response of cAMP sensors to isoproterenol in HEK 293 cells co-expressing the beta adrenergic receptor
# Assay type: cell-based, human
# Settings: in response to isoproternol
# Outline: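 Green cAMP-sensor fluorescence was measured at 25 °C in DPBS, by microscopy or plate reader (488/20 nm excitation, 530/20 nm emission), upon addition of isoproterenol, forskolin, IBMX or DMSO. Cells were HEK 293 or 293T transiently expressing sensor plus beta adrenergic receptor for 24-48 h.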
row,Molecule,Relative Change in Fluorescence [%]
1,B1,74
2,B2,−28
3,B3,−33
4,B4,30
5,B5,73
6,B6,110

# Changes are numbered by the printed parent chain. Names and notes keep the numbering of the source.
